Here are results for 83 compounds from PubChem BioAssay AID1346428 (National Center for Advancing Translational Sciences (NCATS), 2018).

SMILES strings stand for the structures. “And” between values parts separate entries of the source, which are not always exact repeats. Equal values may be shown once. In all, about 48,000 compounds went through this assay and about 1,200 (2.5%) were called active. Roughly 2% stayed inconclusive and do not appear here.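 How the source made its calls: active means activation of at least 60% and not above a set upper limit (about 1 call in 100 departs from these limits); inconclusive means activation of 40% to 60%, or above that upper limit; inactive means activation under 40%.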 The list shows a part of the results.

Sequence of UniProt O75388 (O75388 whole entry, looked up): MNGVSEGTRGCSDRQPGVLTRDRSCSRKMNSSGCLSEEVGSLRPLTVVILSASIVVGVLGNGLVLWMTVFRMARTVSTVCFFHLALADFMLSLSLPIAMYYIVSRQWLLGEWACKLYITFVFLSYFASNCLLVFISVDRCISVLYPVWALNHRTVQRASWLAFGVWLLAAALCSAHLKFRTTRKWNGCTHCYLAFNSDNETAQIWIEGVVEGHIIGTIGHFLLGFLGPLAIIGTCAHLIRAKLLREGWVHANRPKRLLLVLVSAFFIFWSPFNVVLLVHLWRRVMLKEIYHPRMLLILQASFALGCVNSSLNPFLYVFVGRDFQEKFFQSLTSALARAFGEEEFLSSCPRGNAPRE

The test has as its target Probable G-protein coupled receptor 32 (Homo sapiens) (UniProt O75388). As to the kind of experiment: qHTS for Agonists of Human Resolvin D1 Receptor DRV1. The settings on record: CHO-K1 GPR32 beta-arrestin PathHunter luminescence, 90 min; at 76.9 µM; hits give high values; zero percent set by DMSO-only wells. Summed up:
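Using DMSO wells as EC0, agonist-induced signal was taken as chemiluminescence from beta-Gal reconstituted upon beta-arrestin recruitment to GPR32 in CHO-K1 cells after 90 min compound treatment.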
For `CCNC(=O)c1ccc2c(c1)nc1n2CCCCC1`, the activation is inactive: -13.3%.

In the case of `COC(=O)c1c(NC(=O)/C(C#N)=C/c2ccc(OC)cc2)sc2c1CCC2`, the activation is inactive: -20.3%.

Turning to `O=C1CN(/N=C/c2ccc([N+](=O)[O-])o2)C(=O)N1`, the activation was inactive: -1.38%.

With `O=C(NC1CC(=O)N(c2ccccc2)C1)C(c1ccccc1)c1ccccc1` (stereo not drawn), the activation is inactive: -8.08%.

`O=C(CSc1nc2nccnc2c(=O)n1CCc1c[nH]c2ccccc12)Nc1ccccc1`: the activation was inactive: 25%.

For the compound `COc1ccc(S(=O)(=O)N2CCC(N3CCN(Cc4ccc(F)cc4)C(=O)C3=O)CC2)cc1`, the activation is inactive: -10.3%.

Consider `Cc1c(CCNC(=O)c2ccc(Br)o2)sc2nc(-c3ccc(Cl)cc3)nn12`, for which the activation was inactive: 1.65%.

With `Cc1ccc(C(=O)N2CCCCC2)cc1NC(=O)c1nsc2ccccc12`, the activation is inactive: -13%.

As for `O=C(Nc1ccccc1C(F)(F)F)C1CCN(S(=O)(=O)Cc2ccccc2)CC1`, the activation is inactive: -8.05%.

As for `CCc1ccc(C(=O)c2cn(CC(=O)Nc3cc(OC)ccc3OC)c3nc(C)ccc3c2=O)cc1`, the activation was inactive: 34.7%.

With `NC(N)=NC(=O)c1nc(Cl)c(N2CCCCCC2)nc1N`, the activation was inactive: 37.7%.

For the compound `Cc1oc2cc3oc(=O)c(CC(=O)NCc4ccccc4)c(C)c3cc2c1C`, the activation was inactive: -13.8%.

Take `CC1=C(CC(=O)O)c2cc(F)ccc2/C1=C\c1ccc(S(C)(=O)=O)cc1`: the activation is inactive: -24.6% and inactive: -48.9%.

For the compound `COc1cccc(NC(=O)c2oc3ccccc3c2NC(=O)c2ccc(F)c(F)c2)c1`, the activation was inactive: -3.28%.

On to `Cc1ccc(C)c(NC(=O)c2ccc3c(c2)CCCN3S(C)(=O)=O)c1`, for which the activation is inactive: 3.59%.

`Cc1ccc(-n2c(=O)c3sc4ccccc4c3n(C)c2=O)cc1F`: the activation was inactive: -1.96%.

Consider `Cc1ccc(-c2onc(C)c2C)cc1S(=O)(=O)N1CCOc2ccc(Cl)cc21`, for which the activation is inactive: 7.98%.

For the compound `COc1ccc(-n2c(SCC(N)=O)nc3c(oc4ccccc43)c2=O)cc1`, the activation was inactive: -17.7%.

Consider `CC(=O)N1CCc2c(sc3c2c(=O)n(Cc2ccccc2)c(=O)n3Cc2ccccc2F)C1`, for which the activation is inactive: -21.8%.

As for `O=C(Cc1cccs1)Nc1c(C(=O)Nc2ccc(F)cc2)oc2ccccc12`, the activation was inactive: -6.53%.

As to `CC(C)CN1CCc2nc(Nc3ccc(F)cc3F)ncc2C1`, the activation is inactive: -30.2%.

Turning to `Cc1ccccc1OCC(O)CO` (stereo not drawn), the activation is inactive: -2.37%.

As for `CCC(Sc1nc(-c2ccc(F)cc2)nc2c1Cc1c(CO)cnc(C)c1O2)C(=O)Nc1ccc(F)cc1` (stereo not drawn), the activation was inactive: 4.97%.

For the compound `COc1c(Cl)cc(C(=O)N(Cc2ccccc2F)C2CCS(=O)(=O)C2)cc1Cl` (stereo not drawn), the activation is inactive: -10.8%.

Regarding `COc1ccc(CCC(=O)NCc2ccc3c(c2)CCN3C(=O)c2ccccc2)cc1`, the activation is inactive: -28.4%.

Consider `CCS(=O)(=O)N1CCc2cc(C(=O)N3CCN(c4ccccc4OC)CC3)ccc21`, for which the activation was inactive: 19.9%.

As to `CC(C)(C)OC(=O)N1CCc2nc(N3CCN(c4ncccn4)CC3)ncc2C1`, the activation was active: 62.3%.

As to `Cn1c(=O)c2c(nc(SCC(=O)Nc3ccc(F)cc3)n2Cc2ccccc2F)n(C)c1=O`, the activation is inactive: 11.7%.

Turning to `COc1ccc(C(CNC(=O)c2ccc(F)cc2)N2CCCC2)cc1` (stereo not drawn), the activation is inactive: -13.8%.

For the compound `CCOc1ccc2nc(NC(=O)c3nc(SCc4ccccc4C)ncc3Cl)sc2c1`, the activation was inactive: 1.75%.

With `CCCSc1ncc(Cl)c(C(=O)Nc2c(C(=O)c3ccc(C)cc3)oc3ccccc23)n1`, the activation was inactive: -0.669%.

Take `CCC(=O)N1c2ccc(S(=O)(=O)CCC(=O)N3CCN(c4cc(C)ccc4C)CC3)cc2CC1C` (stereo not drawn): the activation was inactive: -0.194%.

With `Cc1cc(C)cc(NC(=O)N2CCC(CN3CCCCCC3)CC2)c1`, the activation was inactive: -27.2%.

As to `CCOC(=O)N1CCN(Cc2nc3cc([N+](=O)[O-])ccc3n2C(C)C)CC1`, the activation was inactive: -0.279%.

`CC(C)c1nc2ccc(C(=O)NCCCN3CCN(c4cccc(Cl)c4)CC3)cc2o1`: the activation is inactive: -2.85%.

As to `Cc1cccc(N2CCN(C(=O)CN3C(=O)COc4ccc(S(=O)(=O)N5CCC(C)CC5)cc43)CC2C)c1` (stereo not drawn), the activation is inactive: -18.1%.

On to `CCOc1ccc(CNC(=O)c2cnc3sc(N4CCOCC4)nn3c2=O)cc1OC`, for which the activation was inactive: -9.65%.

Consider `CCOc1ccc(CCNC(=O)c2nc(-c3cccc(F)c3)n3c2CCCCC3)cc1OCC`, for which the activation was inactive: -36.8%.

Take `CCOC(=O)C1CCC(CN(Cc2ccc(Cl)cc2)S(=O)(=O)c2cc(Cl)cc(Cl)c2)CC1` (stereo not drawn): the activation is inactive: 11.4%.

As to `Cc1cccc(N2CCN(C(=O)C3CCCN(S(=O)(=O)c4ccc(Br)s4)C3)CC2)c1C` (stereo not drawn), the activation was inactive: -6.62%.

On to `Cc1ccc2scc(N3CCC(C)CC3)c(=O)c2c1`, for which the activation is inactive: -29%.

As for `COc1cccc(NS(=O)(=O)c2ccc3c(c2)[C@H]2C=CC[C@H]2[C@@H](c2ccccc2Cl)N3)c1`, the activation is inactive: -11.3%.

For the compound `CCN(CC)CCNC(=O)CSc1nc2nc(C)c(Cc3ccccc3)c(C)n2n1`, the activation was inactive: -13.4%.

With `COc1ccccc1NC(=O)CSc1nc2nccnc2c(=O)n1CCc1c[nH]c2ccccc12`, the activation is inactive: -0.814%.

Regarding `Cc1cccn2c(Nc3ccccc3)c(-c3cccs3)nc12`, the activation is inactive: -22.8%.

On to `COc1cccc(CNC(=O)Cc2ccc(NC(=O)N3CCSc4ncccc43)cc2)c1OC`, for which the activation was inactive: 2.59%.

On to `Cc1[nH]c2ccccc2c1C(c1ccccc1)c1ccc(Cl)s1` (stereo not drawn), for which the activation is inactive: 0.0676%.

For the compound `CCOc1ccccc1NC(=O)CCn1cnnn1`, the activation is inactive: -2.04%.

`CN=C(NC#N)Nc1ccc(C2=NNC(=O)CC2C)cc1` (stereo not drawn): the activation was inactive: 5.6%.

With `COc1ccccc1CNC(=O)CSc1nc2nc(C)c(Cc3ccccc3Cl)c(C)n2n1`, the activation was inactive: -24.2%.

On to `COc1ccc(N2C(=O)CS(=O)(=O)C23C(=O)N(Cc2ccc(F)cc2)c2ccc(C)cc23)cc1` (stereo not drawn), for which the activation was inactive: -3.94%.

Consider `CCC(=O)N1CCc2cc(Br)cc(S(=O)(=O)N3CCCC(C(=O)Nc4cccc(C)c4C)C3)c21` (stereo not drawn), for which the activation was inactive: -3.79%.

With `Cc1ccccc1NC(=O)c1c(NC(=O)c2ccco2)sc2c1CCC(C(C)(C)C)C2` (stereo not drawn), the activation was inactive: 2.36%.

On to `Cc1ccc(Cl)cc1NC(=O)C1CCCN(S(=O)(=O)c2cccc3cccnc23)C1` (stereo not drawn), for which the activation was inactive: -7.8%.

Take `CCCCNC(=O)c1nn(-c2ccc(C)cc2)c(=O)n(C)c1=O`: the activation is inactive: -8.09%.

`CC(CNC(=O)CN1C(=O)COc2ccc(S(=O)(=O)N3CCCCCC3)cc21)c1ccccc1` (stereo not drawn): the activation is inactive: -37.1%.

With `COc1ccc(CCNC(=O)c2cccc(-n3cnc4cccnc43)c2C)cc1OC`, the activation was inactive: 0.288%.

Consider `CC(=O)[C@@]1(O)CC[C@H]2[C@@H]3C[C@H](C)C4=CC(=O)CC[C@]4(C)[C@H]3CC[C@@]21C`, for which the activation was inactive: 7.47%.

Turning to `CC(Oc1ccccc1)C(=O)Nc1ccc(OCc2cc(=O)n3ccsc3n2)cc1` (stereo not drawn), the activation was inactive: 15%.

Consider `Cc1ccccc1CNC(=O)c1cccc(NC(=O)N2CCSc3ncccc32)c1`, for which the activation was inactive: 5.02%.

Consider `CCOC(=O)c1c(S(=O)(=O)N2CCCC(C(=O)Nc3cccc(C#N)c3)C2)c(C)n(C)c1C` (stereo not drawn), for which the activation was inactive: -8.51%.

Take `CCOC(=O)c1c(S(=O)(=O)NCC(=O)Nc2ccc(C)c(N(C)C)c2)c(C)n(C)c1C`: the activation is inactive: -4.07%.

Turning to `Cc1cc2c(cc1S(=O)(=O)N(C)CC(=O)Nc1ccc(C#N)cc1)OCC(=O)N2`, the activation was inactive: 32.9%.

Turning to `NS(=O)(=O)c1ccc(CCNC(=O)c2ccc3nc(CCc4ccccc4)oc3c2)cc1`, the activation was inactive: 13.4%.

On to `CCOc1ccc(CC(=O)Nc2c(C(=O)Nc3ccc(OC)cc3OC)oc3ccccc23)cc1`, for which the activation is inactive: -15.9%.

As to `Cc1ccc(S(=O)(=O)c2cn(CC(=O)Nc3ccccc3C)c3cc4c(cc3c2=O)OCO4)cc1`, the activation is inactive: -16%.

For `Cn1c(=O)c2c(SCC(=O)NCc3ccco3)nc(-c3cccc(F)c3)nc2n(C)c1=O`, the activation is inactive: -8.02%.

Consider `COc1ccc(-c2nc3cc(C)ccn3c2NC(=O)c2ccc(F)cc2)cc1`, for which the activation was inactive: -36.2%.

As for `C[C@H](N)[C@H](O)c1cccc(O)c1`, the activation was inactive: 7.69%.

Take `Cc1ccc(-n2nc3c(=O)n(CC(=O)NC(C)C)nc(C)c3c2C)cc1`: the activation was inactive: -0.0054%.

On to `COc1ccc(S(=O)(=O)c2c(Nc3c(C)cccc3C)sc(C(=O)c3ccc4c(c3)OCO4)c2N)cc1`, for which the activation was inactive: -24.2%.

Take `COc1cc(NC(=O)CC2C(=O)N(c3cccc(C)c3)C(=O)N2Cc2ccco2)cc(OC)c1` (stereo not drawn): the activation is inactive: -18.7%.

Turning to `O=C(Nc1ccc2oc(-c3cccnc3)nc2c1)c1ccc(-c2cccc(Cl)c2)o1`, the activation was inactive: -14.2%.

`COc1cccc(CCNC(=O)c2cnc3sc(N4CCCCCC4)nn3c2=O)c1`: the activation is inactive: -1.25%.

In the case of `CCOC(=O)OCC/C(SC(=O)OCC)=C(\C)N(C=O)Cc1cnc(C)nc1N`, the activation was inactive: 7.62%.

Regarding `COc1ccc(CN(C)c2ccc(-c3nc(-c4ccccc4)no3)cc2[N+](=O)[O-])cc1`, the activation is inactive: -5.94%.

Take `CCC(CC)C(=O)Nc1ccc2nc(SCc3ccccc3)sc2c1`: the activation was inactive: -1.68%.

On to `COc1ccc2c(CC(=O)Nc3ccc(C)cc3)coc2c1`, for which the activation is inactive: -1.02%.

As to `Cc1cccc(Nc2ncc(NC(=O)c3cccc(F)c3)c(Nc3cccc(C)c3)n2)c1`, the activation was inactive: -22%.

For the compound `CS(=O)(=O)c1ncc(Cl)c(C(=O)Nc2c(C(=O)Nc3ccccc3)oc3ccccc23)n1`, the activation is inactive: 42.6%.

Take `O=C(CSc1nnc(-c2ccncc2)n1-c1ccccc1)Nc1ccc(Cl)c(Cl)c1`: the activation is inactive: 40.9%.

On to `COc1ccc(NC(=O)CSC2=Nc3ccccc3C3=NC(CC(=O)NCc4ccco4)C(=O)N23)cc1` (stereo not drawn), for which the activation is inactive: -25.3%.

Take `O=C(Cn1c(-c2cccs2)cc2ccccc21)N1CCN(c2ccccc2F)CC1`: the activation is inactive: -8.95%.
